Assay results as given in the supplement of paper PMC3334620.
The full ranking holds about 33,000 sequences; the median of “E-score (-0.5 to 0.5)” is about -0.054, and the highest 2% start at about 0.35. The list shows a part of the results.

Each sequence was assayed against T1, Stb5 (UniProt P38699) (assay: PBM E-score (8-mer binding enrichment) (E-score (-0.5 to 0.5)); higher = stronger / more preferred TF binding; most listed sequences are background and not binding sites). Details: protein concentration: 200 nM; construct: GST-full length.
T1 sequence: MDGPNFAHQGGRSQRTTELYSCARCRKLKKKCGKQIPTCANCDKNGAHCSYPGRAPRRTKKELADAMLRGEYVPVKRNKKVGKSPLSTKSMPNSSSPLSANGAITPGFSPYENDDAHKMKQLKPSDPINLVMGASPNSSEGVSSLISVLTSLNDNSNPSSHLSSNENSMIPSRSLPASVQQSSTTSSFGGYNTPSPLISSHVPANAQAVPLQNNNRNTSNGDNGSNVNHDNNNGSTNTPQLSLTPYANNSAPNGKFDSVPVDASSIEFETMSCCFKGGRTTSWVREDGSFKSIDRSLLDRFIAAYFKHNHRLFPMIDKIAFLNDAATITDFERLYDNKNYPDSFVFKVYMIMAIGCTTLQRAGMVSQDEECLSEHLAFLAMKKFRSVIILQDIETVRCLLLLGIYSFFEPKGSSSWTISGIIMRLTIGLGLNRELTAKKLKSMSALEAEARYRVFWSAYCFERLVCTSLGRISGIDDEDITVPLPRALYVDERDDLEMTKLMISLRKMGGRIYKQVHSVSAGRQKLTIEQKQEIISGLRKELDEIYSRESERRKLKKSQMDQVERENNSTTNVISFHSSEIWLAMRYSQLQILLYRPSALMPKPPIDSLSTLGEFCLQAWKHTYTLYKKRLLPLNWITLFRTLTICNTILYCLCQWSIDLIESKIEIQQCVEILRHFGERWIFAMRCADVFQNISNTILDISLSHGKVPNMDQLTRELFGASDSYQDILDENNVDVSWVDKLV
Procedure, shortened: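 Yeast transcription factors carrying a GST tag, as full-length proteins or DNA-binding domains, were produced by PURExpress in vitro transcription/translation. About 100-200 nM protein was applied to universal all-10-mer Agilent arrays, double-stranded by primer extension on fresh or once-stripped slides. Bound protein was detected with fluorescent anti-GST, and scans were normalised with masliner. The Universal PBM Analysis Suite gave each ungapped eight-base word, pooled with its reverse complement, an E-score, a modified Wilcoxon-Mann-Whitney statistic.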

Sequence | PBM E-score
CTCCGAGA | 0.187
ACGACGGA | 0.227
CAGGGAGA | -0.261
AAGTTGGG | -0.316
AACTCTGC | -0.236
GGAAACTA | -0.0891
ATTTCGCG | -0.00503
ATTTCAAC | 0.00091
CGAGGCAG | -0.0808
TCATGCGA | -0.0626
ATTCGTTC | -0.0694
GAAAACTC | -0.0766
ATCTGAGC | 0.0183
AGAAGGAC | -0.384
CTGAGATC | -0.158
CAGTCTTA | -0.0948
GGCCCGCC | 0.303
GTTTAGAA | -0.0713
GTTCATTA | -0.0606
AACTAAGC | -0.15
ACCAGGTG | -0.153
GAGACCCA | -0.159
GAAAATAA | 0.0552
CATTGCTC | 0.0791
ACCGGAGG | 0.309

Sequence | PBM E-score
AGACCCCA | -0.173
ACGGATCG | 0.0408
TGAGCCCA | -0.179
ATGAGACG | -0.00272
ACAGAGGA | -0.114
AGACCCGC | 0.36
AGGATCGG | 0.211
TAAATCAA | -0.00303
GATCAGCA | -0.119
CAGTTCGC | -0.166
GAAATCAA | -0.228
AATAAAGC | -0.00711
CATATTGG | -0.18
CGATAGAA | 0.0184
CTTGGCGC | 0.114
ATACGCCC | 0.306
GAGGGGGC | -0.262
CATTACTA | -0.0825
AGGTTCTA | 0.0114
CAAGCAGC | -0.0893
ATCCACGA | -0.324
ATAAGAAG | -0.0004
ACAAGAGT | -0.209
ATGTTCAG | -0.124
CACTGTAA | -0.0759

Sequence | PBM E-score
CTGACACA | -0.192
AGCAACAG | -0.0278
CGCGTCTA | 0.0516
GCTCCGGA | 0.368
ACGGTCTA | 0.0527
TGCTTACA | -0.182
ACGTATTG | 0.0526
GCACGGAC | 0.285
AGCGCTGG | -0.0227
AACTTCCA | -0.0146
AATCCATT | -0.187
AGGCCGAT | 0.295
GATGCAGC | 0.0949
CAATTTCC | 0.132
ATACATCC | 0.295
CAACTAGG | -0.211
CTCCCTGA | -0.182
AAGCTAAC | -0.118
ATATTGAG | -0.114
AATTGCCT | -0.11
CCGTCTTC | 0.208
ACGGAGAA | 0.188
AGACCCAT | -0.217
CTACCTGA | -0.162
CACCAAAG | -0.0465

Sequence | PBM E-score
ATGAACCC | 0.133
CACTTTGC | -0.0943
CGGGAGCA | 0.141
GGTGCAGA | 0.0449
GCAGCAAC | -0.0309
TATGTCCA | 0.133
CACTCTGG | -0.197
AGCCAATA | -0.115
GAGAAGGC | -0.197
AAATAGTC | 0.23
GGAATCTA | -0.12
CCATGGGG | -0.192
CACTCCCC | 0.0717
CGAGGTGA | -0.00576
GACCGCCA | 0.317
AACTTGGG | 0.00547
CGTGAGTA | -0.0904
AAGCTCGC | -0.205
CACCACCC | -0.0691
CAACCGCA | -0.0614
ATGATCTC | -0.295
CGTACTTA | 0.199
AGATAGCG | -0.171
AACGACCG | 0.173
AGTAAATA | 0.0513

Sequence | PBM E-score
ATCTCTGC | -0.21
CGACGCTC | 0.122
GTTTGCAA | -0.0728
AGGTTGTC | -0.204
CTGGGCCC | 0.0619
CCTAGTCG | -0.0474
CTACGAGC | -0.152
ACGCTGTC | 0.0255
AAGGCCTC | -0.17
ATATTTTC | 0.0999
ACTCAAGA | -0.163
CTGCACAC | -0.175
CCGCGCAA | 0.204
CGATTCGA | -0.0986
ACACTAGT | -0.221
AATGCCCC | 0.128
AATTGGGA | -0.0477
AACCTGTG | -0.218
TAACGCTA | 0.102
ATTTACTG | -0.0363
ATGGCTTG | -0.134
AACAATGT | -0.0728
ACGCTTCT | -0.237
CCCGTACA | 0.0487
GATAGCTA | -0.159

Sequence | PBM E-score
CGACTGAC | -0.021
CAAATATC | 0.11
GTACCAGA | -0.2
TGGTTTAA | -0.231
ATCTCGTG | -0.136
ATTCCCCC | 0.116
ATCACTCC | 0.255
CACGCCCC | -0.13
ATACGCAG | -0.28
GTGCAGTA | -0.0157
GCCAACAC | -0.134
GAGCTGGA | -0.107
CAATCTTC | -0.167
AAAAGCGC | 0.121
GAAATGGC | 0.0144
ACCTAAGT | 0.0418
ATTGTCAA | -0.18
AACTAACC | 0.0977
CGAGAGCC | -0.13
CAGTTACC | -0.115
ACGGGACT | 0.343
GATAAATC | 0.249
TCCCTCCA | -0.146
ACGCCGCA | 0.354
CAGCGGTA | 0.294

Sequence | PBM E-score
CATAGAAG | -0.126
AGCCTAGA | -0.206
AATTGACA | -0.0344
CGTAGGGC | -0.0383
CAGCCGGA | 0.14
AATACTGC | -0.0596
ACGGCACC | 0.175
GCCCACAA | -0.138
CATTCCTA | -0.217
ACTCCTTA | -0.048
TCGAATCA | -0.163
AAGTATAA | -0.144
TCATTCCA | -0.171
GTGCCGCA | 0.202
TCGAGGCA | -0.122
CAATGGCG | 0.0853
AGCTCGAA | -0.0836
CAAGCCAC | -0.275
AGACCCTA | -0.132
AAATACGC | 0.108
AAGTCTTC | -0.346
ATTCAGCG | 0.0232
